# Test results published in the supplement of paper PMC10037445.
# Over roughly 2,900 compounds, “NF-kB SEAP reporter activity, fold change vs agonist alone” has its median near 0.99; the highest 2% begin near 2.6. The list shows a part of the results.
# What was measured:
# RAW-Dual [1] = experiment: NF-kB SEAP reporter activity, fold change vs agonist alone; higher = enhanced NF-kB activity; settings: library stock concentration (final ~1000-fold dilution): 10 mM
# How it was run: (§1)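 RAW-Dual macrophages were seeded in DMEM at 50,000 cells/well in 384-well plates, given 50 nL of library stock by pin tool, and given a PRR agonist 1 h later. Plates were held at 37 °C, 5% CO2 for 20 hours, after which supernatant was read for IRF by QuantiLuc luminescence and for NF-κB by QuantiBlue absorbance at 620 nm. Reporter activity is expressed as fold change over wells that received agonist alone. A well was called cytotoxic when IncuCyte confluency fell below 70% of agonist controls in both mask sets.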
# RAW-Dual [2] = experiment: NF-kB SEAP reporter activity, fold change vs agonist alone; cytotoxicity flag (confluency mask): not cytotoxic; higher = enhanced NF-kB activity
# How it was run: as §1
# RAW-Dual [3] = experiment: NF-kB SEAP reporter activity, fold change vs agonist alone; cytotoxicity flag (confluency mask): cytotoxic (confluency <70% of control); higher = enhanced NF-kB activity
# How it was run: as §1
# [4] = cytotoxicity flag (confluency mask): not cytotoxic, agonist: Imiquimod (TLR7) […]
# [5] = cytotoxicity flag (confluency mask): not cytotoxic, agonist: MPLA (TLR4) […]
# [6] = agonist: ODN 1826 (TLR9) 0.5 ug/mL
# [7] = agonist: Pam2CSK4 (TLR2/6) 0.1 ug/mL
# [8] = agonist: Pam3CSK4 (TLR2/1) 0.1 ug/mL
smiles,measurement,setting,value
C=C1C(=O)OC2C1CC/C(C)=C/CCC1(C)OC21 (stereo not drawn),NF-kB SEAP reporter activity,"RAW-Dual [1]; cytotoxicity flag (confluency mask): cytotoxic (confluency <70% of control), agonist: Imiquimod (TLR7) […]",0.154
same,NF-kB SEAP reporter activity,"RAW-Dual [1]; cytotoxicity flag (confluency mask): cytotoxic (confluency <70% of control), agonist: MPLA (TLR4) […]",0.205
same,NF-kB SEAP reporter activity,RAW-Dual [1]; [4],0.192
same,NF-kB SEAP reporter activity,RAW-Dual [1]; [5],0.219
C=C1C(=O)OC2C1CC/C(C)=C/CCC1(C)OC21 (stereo not drawn) (library stock concentration (final ~1000-fold dilution): 10 mM),NF-kB SEAP reporter activity,RAW-Dual [2]; agonist: LPS (TLR4) 0.1 ug/mL,0.203
same,NF-kB SEAP reporter activity,RAW-Dual [2]; [6],0.187
same,NF-kB SEAP reporter activity,RAW-Dual [2]; [7],0.108
same,NF-kB SEAP reporter activity,RAW-Dual [2]; [8],0.145
same,NF-kB SEAP reporter activity,RAW-Dual [3]; agonist: LPS (TLR4) 0.1 ug/mL,0.33
same,NF-kB SEAP reporter activity,RAW-Dual [3]; [6],0.156
same,NF-kB SEAP reporter activity,RAW-Dual [3]; [7],0.0678
same,NF-kB SEAP reporter activity,RAW-Dual [3]; [8],0.128
Oc1cc(O)c2c(c1)OC(c1ccc(O)c(O)c1)C(O)C2 (stereo not drawn),NF-kB SEAP reporter activity,RAW-Dual [1]; [5],1.07
Oc1cc(O)c2c(c1)OC(c1ccc(O)c(O)c1)C(O)C2 (stereo not drawn) (library stock concentration (final ~1000-fold dilution): 10 mM),NF-kB SEAP reporter activity,RAW-Dual [2]; agonist: LPS (TLR4) 0.1 ug/mL,1.07
same,NF-kB SEAP reporter activity,RAW-Dual [2]; [6],0.993
same,NF-kB SEAP reporter activity,RAW-Dual [2]; [7],1.06
same,NF-kB SEAP reporter activity,RAW-Dual [2]; [8],1.07
O=C(NCC(O)CN1CCc2ccccc2C1)c1cc(NC2COC2)ncn1 (stereo not drawn) (library stock concentration (final ~1000-fold dilution): 10 mM),NF-kB SEAP reporter activity,RAW-Dual [2]; agonist: LPS (TLR4) 0.1 ug/mL,1.03
same,NF-kB SEAP reporter activity,RAW-Dual [2]; [6],0.876
same,NF-kB SEAP reporter activity,RAW-Dual [2]; [7],1.08
same,NF-kB SEAP reporter activity,RAW-Dual [2]; [8],1.24
O=C(NCC(O)CN1CCc2ccccc2C1)c1cc(NC2COC2)ncn1 (stereo not drawn),NF-kB SEAP reporter activity,RAW-Dual [1]; [4],0.898
same,NF-kB SEAP reporter activity,RAW-Dual [1]; [5],1.06
CC12CCCN1CC1=NNC(=O)c3cc(F)cc4[nH]c2c1c34 (stereo not drawn),NF-kB SEAP reporter activity,RAW-Dual [1]; [4],1.23
same,NF-kB SEAP reporter activity,RAW-Dual [1]; [5],1.02
CC12CCCN1CC1=NNC(=O)c3cc(F)cc4[nH]c2c1c34 (stereo not drawn) (library stock concentration (final ~1000-fold dilution): 10 mM),NF-kB SEAP reporter activity,RAW-Dual [2]; agonist: LPS (TLR4) 0.1 ug/mL,1.03
same,NF-kB SEAP reporter activity,RAW-Dual [2]; [6],1.01
same,NF-kB SEAP reporter activity,RAW-Dual [2]; [7],1.28
same,NF-kB SEAP reporter activity,RAW-Dual [2]; [8],1.55
COc1cc2c(c(OC)c1OC)-c1c(cc3c(c1OC)OCO3)C[C@H](C)[C@](C)(O)[C@H]2OC(=O)c1ccccc1,NF-kB SEAP reporter activity,RAW-Dual [1]; [4],0.922
same,NF-kB SEAP reporter activity,RAW-Dual [1]; [5],1
COc1cc2c(c(OC)c1OC)-c1c(cc3c(c1OC)OCO3)C[C@H](C)[C@](C)(O)[C@H]2OC(=O)c1ccccc1 (library stock concentration (final ~1000-fold dilution): 10 mM),NF-kB SEAP reporter activity,RAW-Dual [2]; agonist: LPS (TLR4) 0.1 ug/mL,1.02
same,NF-kB SEAP reporter activity,RAW-Dual [2]; [6],0.995
same,NF-kB SEAP reporter activity,RAW-Dual [2]; [7],0.833
same,NF-kB SEAP reporter activity,RAW-Dual [2]; [8],0.921
CCCC(=O)Nc1cccc(NC(=O)c2ccccc2Br)c1,NF-kB SEAP reporter activity,RAW-Dual [1]; [4],1.06
same,NF-kB SEAP reporter activity,RAW-Dual [1]; [5],0.952
CCCC(=O)Nc1cccc(NC(=O)c2ccccc2Br)c1 (library stock concentration (final ~1000-fold dilution): 10 mM),NF-kB SEAP reporter activity,RAW-Dual [2]; agonist: LPS (TLR4) 0.1 ug/mL,0.939
same,NF-kB SEAP reporter activity,RAW-Dual [2]; [6],0.996
same,NF-kB SEAP reporter activity,RAW-Dual [2]; [7],0.966
same,NF-kB SEAP reporter activity,RAW-Dual [2]; [8],1.15
Cc1nc(N(C)C(=O)Cc2ccc(-c3ccccn3)cc2)sc1S(N)(=O)=O (library stock concentration (final ~1000-fold dilution): 10 mM),NF-kB SEAP reporter activity,RAW-Dual [2]; agonist: LPS (TLR4) 0.1 ug/mL,1.71
same,NF-kB SEAP reporter activity,RAW-Dual [2]; [6],0.442
same,NF-kB SEAP reporter activity,RAW-Dual [2]; [7],0.948
same,NF-kB SEAP reporter activity,RAW-Dual [2]; [8],0.808
Cc1nc(N(C)C(=O)Cc2ccc(-c3ccccn3)cc2)sc1S(N)(=O)=O,NF-kB SEAP reporter activity,RAW-Dual [1]; [4],0.584
same,NF-kB SEAP reporter activity,RAW-Dual [1]; [5],0.964
O=C(Nc1ccc(OC(F)(F)Cl)cc1)c1cnc(N2CCC(O)C2)c(-c2ccn[nH]2)c1 (stereo not drawn),NF-kB SEAP reporter activity,RAW-Dual [1]; [4],0.855
same,NF-kB SEAP reporter activity,RAW-Dual [1]; [5],1.42
O=C(Nc1ccc(OC(F)(F)Cl)cc1)c1cnc(N2CCC(O)C2)c(-c2ccn[nH]2)c1 (stereo not drawn) (library stock concentration (final ~1000-fold dilution): 10 mM),NF-kB SEAP reporter activity,RAW-Dual [2]; agonist: LPS (TLR4) 0.1 ug/mL,1.26
same,NF-kB SEAP reporter activity,RAW-Dual [2]; [6],0.686
same,NF-kB SEAP reporter activity,RAW-Dual [2]; [7],0.635
same,NF-kB SEAP reporter activity,RAW-Dual [2]; [8],0.506
COc1nc(C)cnc1NS(=O)(=O)c1cccnc1-c1ccc(-c2nnco2)cc1 (library stock concentration (final ~1000-fold dilution): 10 mM),NF-kB SEAP reporter activity,RAW-Dual [2]; agonist: LPS (TLR4) 0.1 ug/mL,1.06
same,NF-kB SEAP reporter activity,RAW-Dual [2]; [6],1.02
same,NF-kB SEAP reporter activity,RAW-Dual [2]; [7],1.01
same,NF-kB SEAP reporter activity,RAW-Dual [2]; [8],1.11
COc1nc(C)cnc1NS(=O)(=O)c1cccnc1-c1ccc(-c2nnco2)cc1,NF-kB SEAP reporter activity,RAW-Dual [1]; [4],0.819
same,NF-kB SEAP reporter activity,RAW-Dual [1]; [5],0.896
CC(COc1ccccc1)N(CCCl)Cc1ccccc1.Cl (stereo not drawn) (library stock concentration (final ~1000-fold dilution): 10 mM),NF-kB SEAP reporter activity,RAW-Dual [2]; agonist: LPS (TLR4) 0.1 ug/mL,0.31
same,NF-kB SEAP reporter activity,RAW-Dual [2]; [6],0.918
same,NF-kB SEAP reporter activity,RAW-Dual [2]; [7],0.258
same,NF-kB SEAP reporter activity,RAW-Dual [2]; [8],0.925
CC(COc1ccccc1)N(CCCl)Cc1ccccc1.Cl (stereo not drawn),NF-kB SEAP reporter activity,RAW-Dual [1]; [4],0.881
same,NF-kB SEAP reporter activity,RAW-Dual [1]; [5],0.687
C/C(O)=C(\C#N)C(=O)Nc1ccc(C(F)(F)F)cc1,NF-kB SEAP reporter activity,RAW-Dual [1]; [4],2.08
same,NF-kB SEAP reporter activity,RAW-Dual [1]; [5],1.03
C/C(O)=C(\C#N)C(=O)Nc1ccc(C(F)(F)F)cc1 (library stock concentration (final ~1000-fold dilution): 10 mM),NF-kB SEAP reporter activity,RAW-Dual [2]; agonist: LPS (TLR4) 0.1 ug/mL,0.789
same,NF-kB SEAP reporter activity,RAW-Dual [2]; [6],1.3
same,NF-kB SEAP reporter activity,RAW-Dual [2]; [7],0.564
same,NF-kB SEAP reporter activity,RAW-Dual [2]; [8],0.688
C[N+]1(C)C2CCC1CC(OC(=O)C(O)c1ccccc1)C2 (stereo not drawn) (library stock concentration (final ~1000-fold dilution): 10 mM),NF-kB SEAP reporter activity,RAW-Dual [2]; agonist: LPS (TLR4) 0.1 ug/mL,0.856
same,NF-kB SEAP reporter activity,RAW-Dual [2]; [6],0.973
same,NF-kB SEAP reporter activity,RAW-Dual [2]; [7],1.08
same,NF-kB SEAP reporter activity,RAW-Dual [2]; [8],1.03
C[N+]1(C)C2CCC1CC(OC(=O)C(O)c1ccccc1)C2 (stereo not drawn),NF-kB SEAP reporter activity,RAW-Dual [1]; [4],0.931
same,NF-kB SEAP reporter activity,RAW-Dual [1]; [5],1.01
CN(C)c1ncnc2nc[nH]c12 (library stock concentration (final ~1000-fold dilution): 10 mM),NF-kB SEAP reporter activity,RAW-Dual [2]; agonist: LPS (TLR4) 0.1 ug/mL,0.948
same,NF-kB SEAP reporter activity,RAW-Dual [2]; [6],0.973
same,NF-kB SEAP reporter activity,RAW-Dual [2]; [7],1.08
same,NF-kB SEAP reporter activity,RAW-Dual [2]; [8],1.01
CN(C)c1ncnc2nc[nH]c12,NF-kB SEAP reporter activity,RAW-Dual [1]; [4],0.939
same,NF-kB SEAP reporter activity,RAW-Dual [1]; [5],0.995
